Among all 45,000 compounds or so, about 65 (0.1%) were called active. Calls follow the shape of the dose curve; as a rule, active = well fitted activation curve with a large enough effect; inconclusive = small, poorly fitted or top-dose-only effect; inactive = no such curve, though single readings can be large or run the other way. The list shows a part of the results.
biological target: Galactocerebrosidase (Homo sapiens) (UniProt P54803); assay: A Novel Cell-Based Assay to Identify Small Molecules for B -Galactocerebrosidase; conditions: 145M-Twi-hGALC-G270D cells (Twitcher mouse brain line with human GALC G270D), HMU-beta-Gal fluorescence, 48 h; series mostly up to 57.5 µM; activation: at the top concentration; also: 0% is about no effect; nearly all actives have a fitted effect of over 65% in size
Chain of UniProt P54803 (P54803 whole entry, looked up): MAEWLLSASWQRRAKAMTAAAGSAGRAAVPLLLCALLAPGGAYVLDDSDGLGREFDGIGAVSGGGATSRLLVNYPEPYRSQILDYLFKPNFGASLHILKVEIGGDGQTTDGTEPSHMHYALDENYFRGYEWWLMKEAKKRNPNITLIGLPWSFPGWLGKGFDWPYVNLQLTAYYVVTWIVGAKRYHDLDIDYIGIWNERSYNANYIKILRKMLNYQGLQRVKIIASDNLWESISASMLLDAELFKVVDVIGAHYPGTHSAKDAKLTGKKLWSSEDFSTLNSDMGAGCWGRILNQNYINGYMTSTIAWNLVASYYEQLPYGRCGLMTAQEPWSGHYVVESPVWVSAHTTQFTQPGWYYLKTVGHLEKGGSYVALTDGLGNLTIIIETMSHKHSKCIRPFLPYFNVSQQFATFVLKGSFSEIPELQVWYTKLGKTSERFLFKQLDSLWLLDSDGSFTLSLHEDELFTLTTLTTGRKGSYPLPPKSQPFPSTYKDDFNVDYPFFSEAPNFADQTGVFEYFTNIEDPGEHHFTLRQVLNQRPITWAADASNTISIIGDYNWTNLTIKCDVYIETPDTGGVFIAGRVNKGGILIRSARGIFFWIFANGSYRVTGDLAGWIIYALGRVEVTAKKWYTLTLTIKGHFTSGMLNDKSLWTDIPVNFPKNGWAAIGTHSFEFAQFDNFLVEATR
Procedure, shortened: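 Fluorogenic HMU-b-Gal hydrolysis (0.1 mM final, pH 5.2 citrate-phosphate with 1 mg/mL sodium taurocholate; carbonate stop buffer) measures mutant GALC activity after compound treatment of live 145M-Twi Twitcher brain cells stably carrying human GALC-G270D, with wild-type GALC line alongside; activation sought.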

activation, inactive:
Cc1ccccc1CNC(=O)c1cc2cc(S(=O)(=O)N3CCCCC3)ccc2n1C -3.34%
COc1ccc(-n2c(-c3ccco3)nc3c(cnn3-c3ccccc3C)c2=O)cc1 9.94%
Cc1cc(N2CCN(c3cccc(C)c3C)CC2)n2nc(C)c(-c3ccc(Cl)cc3)c2n1 0.402%
Cc1ccc(S(=O)(=O)n2nc(-c3ccco3)nc2NCc2ccccc2Cl)cc1 -30.4%
CCn1c(=O)cc(OCC(=O)N2CCN(c3ccccc3OC)CC2)c2ccccc21 -20.9%
Cc1cccc(Cn2cnc3c(cnn3-c3ccc(Cl)cc3)c2=O)c1 -9.53%
Cc1cc(C)n2c(Nc3ccccc3)c(-c3ccccc3)nc2n1 -12.4%
Cc1ccc(CN2CCN(C3CCN(C(=O)Nc4ccccc4C(F)(F)F)CC3)C(=O)C2=O)cc1 -6.33%
Cc1cc(C)c2oc(C(=O)Nc3ccc(S(=O)(=O)N4CCC(C)CC4)cc3)cc(=O)c2c1 -8.05%
COc1ccc(Cl)cc1NC(=O)Cn1cnc2c1c(=O)n(C)c(=O)n2C -17.4%
Cc1ccc(CNC(=O)CCCn2c(=O)c3ccccc3n(Cc3ccccc3C)c2=O)cc1 -4.66%
CC(NC(=O)c1ccc2c(c1)N(Cc1ccc(Cl)cc1)C(=O)c1ccccc1S2=O)c1ccccc1 (stereo unspecified) 4.84%
CC(C)NC(=O)C1CCCN(c2ncnc3c2nc2n3CCCCC2)C1 (stereo unspecified) -39.8%
COc1cccc(NC(=O)C2CCN(c3nc4ccccc4nc3C(F)(F)F)CC2)c1 -19.1%
Cc1cccc(C)c1NC(=O)CCCN1C(=O)CCn2nc(-c3cn(C)c4ccccc34)cc21 -14.5%
Cc1cccc(Cn2nnc(C(=O)Nc3cc(C)ccc3C)c2N)c1 -20%
COc1cc(OC)c(NC(=O)Nc2c(C)n(C)n(-c3ccccc3)c2=O)cc1Cl -8.58%
CCc1cc2c(-c3ccccc3)cc(=O)oc2c2c1OCN(Cc1ccc(F)cc1)C2 -21.9%
O=C(NC1CC(=O)N(c2cccc(F)c2)C1)C(c1ccccc1)c1ccccc1 (stereo unspecified) -1.91%
CCCN1CCN(c2cc3c(cc2F)c(=O)c(S(=O)(=O)c2ccc(Cl)cc2)cn3C)CC1 -14.6%
COc1ccc(C(=O)NCC(c2ccc(N(C)C)cc2)N2CCc3ccccc32)cc1 (stereo unspecified) -13.9%
Cn1c(=O)n(C)c2cc(N3CCOCC3)c(NC(=O)c3c(F)cccc3F)cc21 -14%
Cc1cc(C)c2sc(NC(=O)c3ccc(S(=O)(=O)N4CCOCC4)cc3)nc2c1 -4.49%
CCC1C(=O)OCC1Cc1cncn1C (stereo unspecified) -8.96%
CCC(Oc1ccccc1)C(=O)Nc1ccc(OCc2cc(=O)n3ccccc3n2)cc1 (stereo unspecified) -5.48%
CCOc1ccc(CNC(=O)C2Cc3ccccc3N2C(=O)CC)cc1 (stereo unspecified) -21.6%
COC(=O)c1ccccc1NC(=O)c1ccc2c(=O)n3c(nc2c1)CCCCC3 -4.41%
O=S(=O)(c1ccc(Cl)cc1)c1nc(-c2ccccc2)oc1N1CCN(c2ccccc2)CC1 -13.9%
O=C(Nc1ccc(Br)cc1)c1cccc(C(=O)Nc2ccc(Br)cc2)c1 -11.5%
NC(=O)c1ncn([C@@H]2O[C@H](CO)[C@@H](O)[C@H]2O)c1O 14.6%
O=C(CN1C=NS(=O)(=O)c2ccc(C(F)(F)F)cc21)Nc1cccc(C(F)(F)F)c1 2.25%
COc1ccc(Nc2c3c(nc4ccc(NC(=O)/C=C/c5cccc(OC)c5OC)cc24)CCCC3)cc1OC -23.5%
CCOC(=O)c1cc(NC(=O)c2ccc(Cl)cc2)c(=O)n2c1oc1ccccc12 0.877%
Cc1ccc(CNC(=O)Cn2c(=O)n(Cc3ccccc3)c(=O)c3sc4ccccc4c32)cc1 -6.47%
Cc1ccc(CN(Cc2cccn2-c2nnc(N3CCCC3=O)s2)C(=O)Nc2ccccc2C(F)(F)F)cc1 -6.94%
COc1ccccc1N1CCN(C(=O)CN2C(=O)COc3ccc(S(=O)(=O)N4CCCC4)cc32)CC1 -1.76%
CCOc1ccc(C2CC(=O)c3c([nH]c(C(=O)OC4CCC(C)CC4)c3C)C2)cc1 (stereo unspecified) -20.2%
CCc1cccc(NC(=O)CSc2nc3ccsc3c(=O)n2CC)c1 -15.5%
CCn1c(/C(C#N)=C/c2ccccc2Cl)nc2ccccc21 -23.6%
CCc1nc(SCc2cc(=O)c3cc(C)ccc3[nH]2)n[nH]1 -4.78%
Cc1ccc(C(C)C)cc2c(C)ccc1-2 -16.8%
COc1ccc(CNC(=O)c2cccc(N3CCCS3(=O)=O)c2)cc1OC -16%
Cc1c(C(=O)N(Cc2cccc(F)c2)C2CCS(=O)(=O)C2)oc2cc(Br)ccc12 (stereo unspecified) -22.5%
O=c1cc(-c2ccc(F)cc2)nc(SCc2nc(-c3cccc(C(F)(F)F)c3)no2)[nH]1 -4.59%
COc1ccc(NC(=O)CN2C(=O)C3(SCC(=O)N3c3ccccc3)c3ccccc32)cc1Cl (stereo unspecified) -16.6%
CCOC(=O)c1c(C)c(-c2ccccc2)n(CC(=O)NC2CCCCCC2)c1C -12.4%
CC(C)=CCC/C(C)=C/CC/C(C)=C/CCC(=O)OC/C=C(\C)CCC=C(C)C -7.3%
CCn1c(=NC(=O)c2ccc(S(=O)(=O)N3CCCC3)cc2)sc2cc(Br)ccc21 4.58%
CC(C)c1ccc(NC(=O)c2ccc(Cn3nc(N4CCN(c5ccccc5)CC4)ccc3=O)o2)cc1 -2.87%
O=C(Cn1ncn2nc(-c3cccs3)cc2c1=O)NCc1ccccc1Cl -16.2%
COc1cccc(NC(=O)Cn2cc(C(=O)c3ccc(F)cc3)c(=O)c3cc(OC)ccc32)c1 -20.6%
CCc1oc2ccccc2c1C(=O)c1cc(I)c(O)c(I)c1 -7.11%
Cc1cccc(Cn2cnc3c(oc4ccccc43)c2=O)c1 -15.1%
C=CCc1ccc(OCc2ccc(C(=O)Nc3ccc(NC(C)=O)cc3)o2)c(OC)c1 -20.2%
Cc1ccc(C)c(N2C(=O)N(C)c3ccccc3S2(=O)=O)c1 -3.81%
COC(=O)c1c(NC(=O)c2nc(SCc3ccccc3C)ncc2Cl)sc2c1CCCC2 -12.8%
COc1ccc(-n2c(C)nc3cc(C(=O)NC4CCCCCC4)ccc32)cc1 -19.9%
CCCN(CCC)CCNC(=O)c1sc2nc3n(c(=O)c2c1C)CCCCC3 -9.04%
CC1CCCN(S(=O)(=O)c2ccc(N3CCCCS3(=O)=O)cc2)C1 (stereo unspecified) 3.58%
COc1ccc(-c2c(C)nn3c(N4CCN(c5ccccc5F)CC4)cc(C)nc23)cc1OC -18.3%
CCc1c(C)sc2c1CCN(C(=O)Nc1cc(C)ccc1OC)C2c1ccc(F)cc1 (stereo unspecified) -16.4%

— PubChem BioAssay AID1159614 (National Center for Advancing Translational Sciences (NCATS), 2016)
